# Over roughly 33,000 sequences, “E-score (-0.5 to 0.5)” has its median near -0.04; the highest 2% begin near 0.36. The list shows a part of the results.
# Target: T1, Hmlalpha2 (UniProt P0CY09)
# T1 sequence: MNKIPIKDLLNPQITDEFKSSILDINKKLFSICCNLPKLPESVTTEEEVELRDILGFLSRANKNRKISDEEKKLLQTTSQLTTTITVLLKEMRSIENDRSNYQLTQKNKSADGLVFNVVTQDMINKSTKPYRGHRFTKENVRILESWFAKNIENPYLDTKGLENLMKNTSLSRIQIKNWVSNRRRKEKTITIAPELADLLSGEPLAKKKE
# Test: PBM E-score (8-mer binding enrichment) (E-score (-0.5 to 0.5)); higher = stronger / more preferred TF binding; most listed sequences are background and not binding sites
# Settings: protein concentration: 200 nM; construct: GST-full length
# Procedure, shortened: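 Universal all-10-mer Agilent arrays, double-stranded by primer extension on fresh or once-stripped slides, were probed with about 100-200 nM GST-tagged yeast transcription factors made by PURExpress. Fluorescent anti-GST detected bound protein, and masliner normalised the scans. E-scores from the Universal PBM Analysis Suite were given to each ungapped eight-base word pooled with its reverse complement.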
row,Sequence,PBM E-score
1,GGACTCAA,-0.168
2,GGAACGCA,-0.155
3,CACTTAGA,0.119
4,CGTTACAA,0.318
5,GTAACAGA,0.245
6,CCCGCGAC,-0.197
7,AGTTAGCG,0.0775
8,CAAGCCCC,-0.183
9,GAGCGGCA,-0.305
10,ATATAAAT,0.125
11,CAGTGACA,0.118
12,ACTAGCTG,-0.0534
13,AACCCAAA,0.15
14,ATAGAGAG,-0.252
15,TGTTGCAA,0.321
16,TATGAGCA,-0.136
17,CACCGAGC,-0.00628
18,GGTATACC,-0.128
19,CCATGCAC,-0.0817
20,AGTGTTCC,-0.0674
21,GGGGACCA,-0.175
22,ACTTTTCC,-0.0657
23,CGTTATTC,0.155
24,GCTGAGAA,-0.247
25,AGCATGTA,0.458

row,Sequence,PBM E-score
1,CTTATGAC,0.0464
2,GAATTCGA,-0.0613
3,AATCCTGT,0.135
4,AGCGGTGG,-0.307
5,CAAGCTCA,-0.0894
6,CGATTATA,0.00421
7,AAGTCCTC,-0.282
8,AAAGCGGC,-0.0147
9,CGAAGTTA,0.0538
10,CTCTCTTA,-0.0598
11,AGTGCTCA,-0.0699
12,AGACGTGG,-0.0301
13,ACTTTAAA,0.201
14,CGAATAAC,0.133
15,ACCGAGGT,-0.247
16,GAGCCAGC,-0.0829
17,GTGTTCAA,0.333
18,CCTCACCG,-0.183
19,CCCCCGAC,-0.195
20,CGAGATAC,0.133
21,GTGGTCAA,-0.0351
22,GAAATACA,0.346
23,AAGAAGAG,-0.106
24,AGTGGGCA,-0.0948
25,AGTCCACC,-0.0688

row,Sequence,PBM E-score
1,CTCTGGGA,-0.367
2,CGTGTCTA,0.305
3,GCGTGGAC,-0.13
4,ACCATGGA,-0.217
5,TGTACTAA,0.259
6,GCGACGCA,0.06
7,ACGCGAAC,0.0815
8,CGGGCTAC,-0.086
9,AGCTTTTA,0.136
10,CTAACTGA,-0.0961
11,GATCAATA,0.0409
12,CGTCCACG,-0.073
13,ATAATTCG,0.101
14,CAAGTAGC,0.0879
15,CTCAGCTA,-0.149
16,AGAAACTA,-0.00717
17,TATGAGAA,-0.0916
18,AGGAACAT,0.288
19,CGGTGCAA,-0.0423
20,TGCCGCAA,-0.162
21,ACCAAGTC,-0.107
22,CTCACCAG,-0.268
23,AATTCCGT,0.0984
24,CCCCGACA,-0.0915
25,CCTCACGC,0.0491

row,Sequence,PBM E-score
1,ACGTACCT,0.0217
2,TGAGCACA,0.116
3,CAATTCAC,0.222
4,ACGCATGA,0.101
5,CGGGCCGC,-0.181
6,AGCAGGCG,0.046
7,GACGTTGA,0.0484
8,CAGACGGC,-0.13
9,GCACAGGC,-0.00621
10,TACAAAAA,0.261
11,AACATTAG,0.0422
12,CGTCACAC,0.0812
13,CAGCAGGG,-0.229
14,CCCTCCAC,-0.173
15,ATCAAAAA,0.0225
16,GATATCCA,-0.00694
17,CGTGACTC,-0.168
18,ATAAGACG,-0.0879
19,TATCCTGA,-0.0757
20,ACCGCGCG,-0.0391
21,ACATCTCA,0.136
22,ATTACCAG,0.0501
23,ACGGGTCC,-0.15
24,ACAACTGG,-0.159
25,TTCTAGAA,0.00872

row,Sequence,PBM E-score
1,ACAACTCG,0.162
2,ATCGAACC,0.0125
3,ACAGTACC,-0.0457
4,CAGGCATC,-0.165
5,CCAAAAGC,-0.203
6,AGCATACC,-0.175
7,AGGATTAT,-0.137
8,GCCTTATA,0.0388
9,AATGATCT,-0.0734
10,CGGATGGA,-0.0123
11,CCTTATAA,0.14
12,CGTCAAAG,0.158
13,TCAGCGGA,-0.169
14,CGAAAACG,-0.0396
15,CATTCATC,-0.0211
16,GTGTGGGA,-0.0513
17,AATATGTG,0.262
18,ACGTACCC,-0.0113
19,CACAGTCA,-0.00427
20,AGCATGAG,0.0355
21,CGTTTCAG,-0.0639
22,CATTTACC,0.144
23,CGAGTATC,-0.11
24,GCGCCAGC,-0.11
25,AAATGGAT,0.12

row,Sequence,PBM E-score
1,ACAGGGGG,-0.118
2,CAACCAGC,-0.0722
3,ATCCCGGA,-0.195
4,GGCTGATA,-0.172
5,AGGAGCGC,-0.191
6,ACGAGCGG,-0.054
7,GGCTGCCC,-0.413
8,GAATTACC,0.107
9,GTACGGAC,-0.065
10,ATTTCTCG,0.219
11,TGCAAAAA,0.077
12,GGGGATTA,0.0616
13,ATCGTGGC,-0.0901
14,CCGGTTGA,-0.0664
15,AATAGCAT,0.133
16,AGCTCTGA,-0.226
17,AGACGACC,-0.0835
18,AAAGAAAG,-0.147
19,AATTCTCA,0.0848
20,GCTAGTCC,-0.27
21,AGCGACCT,-0.215
22,CTAGCTAG,0.0622
23,GAAACAAA,0.193
24,CGATGCGA,-0.0513
25,AGGTGGAG,-0.217

row,Sequence,PBM E-score
1,AGGGCCGC,-0.228
2,AACCAGGT,-0.18
3,ACTTTCGC,-0.0678
4,AACCGCGC,-0.0821
5,GAAGTTCA,0.0277
6,CCGCAGAG,-0.445
7,AACACGAG,0.377
8,ACTGATAT,-0.0875
9,AGCTAACC,-0.229
10,AAGCATGG,-0.112
11,ACACAAAT,0.223
12,ATTGCATA,0.0701
13,ATGATGCA,0.135
14,CGATAACA,0.298
15,CAACACTG,0.157
16,CGCTACCC,-0.355
17,AAACTGCC,-0.131
18,CGGCGATA,0.0125
19,AGTACAAA,0.161
20,CGTTCAGA,-0.175
21,ACATGTAG,0.459
22,GCCTGGAA,-0.215

# — the supplement of paper PMC3334620
